The results in this text go back to patent US20180312565A1 (Affibody, published 2018).

Where a chain is given by its changes, count along the chain named.

The Kd is the equilibrium constant for the complex coming apart. Lower therefore signals higher affinity. The term EC50 denotes the concentration that produces a half-maximal response. By IC50 is commonly meant the point on the concentration scale where inhibition reaches its midpoint.

Sequences and labels used below:
T1: human B7-H3 Fc Chimera (R&D Systems, cat. no. 1027-B3-100) (human, UniProt Q5ZPR3-2 29-245, biotinylated in ELISA)
T1 construct: bought; also called hB7-H3; not shown: Fc part of the bought Fc chimera, not described
T1 sequence (looked up): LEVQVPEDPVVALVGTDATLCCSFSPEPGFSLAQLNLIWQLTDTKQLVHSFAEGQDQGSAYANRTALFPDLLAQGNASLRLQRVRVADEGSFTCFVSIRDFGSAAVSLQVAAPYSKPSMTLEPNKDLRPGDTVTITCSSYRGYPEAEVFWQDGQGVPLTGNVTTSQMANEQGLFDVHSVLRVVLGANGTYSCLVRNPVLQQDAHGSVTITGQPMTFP

T2: human PD-L2 Fc Chimera (R&D Systems, cat. no. 1224-PL-100) (human, UniProt Q9BQ51 20-219, biotinylated in ELISA)
T2 construct: bought; also called hPD-L2; not shown: Fc part of the bought Fc chimera, not described
T2 sequence (looked up): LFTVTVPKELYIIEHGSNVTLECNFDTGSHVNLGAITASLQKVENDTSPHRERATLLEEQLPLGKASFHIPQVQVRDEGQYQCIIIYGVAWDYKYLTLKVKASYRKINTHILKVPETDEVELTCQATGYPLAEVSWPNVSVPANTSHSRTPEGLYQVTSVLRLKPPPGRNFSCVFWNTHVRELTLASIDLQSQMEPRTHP

T3: human B7-H4 (R&D Systems, cat. no. 6576-B7-50) (human, UniProt Q7Z7D3 29-258, biotinylated in ELISA)
T3 construct: bought; also called hB7-H4
T3 sequence (looked up): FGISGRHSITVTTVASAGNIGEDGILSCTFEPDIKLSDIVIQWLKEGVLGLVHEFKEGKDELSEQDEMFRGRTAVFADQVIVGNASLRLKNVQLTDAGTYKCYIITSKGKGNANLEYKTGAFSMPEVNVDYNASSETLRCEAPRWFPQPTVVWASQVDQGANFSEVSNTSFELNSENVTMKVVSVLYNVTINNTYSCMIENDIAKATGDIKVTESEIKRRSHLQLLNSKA

B1: His6-Z18054 (designed binder)
chain: MGSSHHHHHHLQVDAKYAKERNDAAFEILYLPNLTQAQIWAFIWKLDDDPSQSSELLSEAKKLNDSQAPKVD
B2: His6-Z17746 (designed binder)
chain: B1 chain with D23E, F26Y, Q36N, I39K
B3: His6-Z18129 (designed binder)
chain: B1 chain with D23S, F26Y, I39K
B4: His6-Z18070 (designed binder)
chain: B1 chain with D23A, F26Y, Q36N, A37H, I39K
B5: Z18138-ABD (designed binder)
chain: AQHDEALEVDAKYAKERNIAAYEILYLPNLTQNQKWAFIWKLDDDPSQSSELLSEAKKLNDSQAPKVDYVLAEAKVLANRELDKYGVSDYYKNLINNAKTVEGVKALIDEILAALPYVPG
notes: domain: GA3
B6: Z18240-ABD (designed binder)
chain: B5 chain with I19Q, N33A
notes: domain: GA3
B7: Z18149-ABD (designed binder)
chain: B5 chain with I19N, N33A
notes: domain: GA3
B8: Z18228-ABD (designed binder)
chain: B5 chain with I19K, Y22Q, K35I
notes: domain: GA3
B9: Z18152-ABD (designed binder)
chain: B5 chain with I19V
notes: domain: GA3
B10: Z18268-ABD (designed binder)
chain: B5 chain with I19A, Y22F, Y26W, Q32N, N33A
notes: domain: GA3
B11: Z18158-ABD (designed binder)
chain: B5 chain with I19R, Q32H, N33S
notes: domain: GA3
B12: Z18353-ABD (designed binder)
chain: B5 chain with I19E, N33A
notes: domain: GA3
B13: Z18179-ABD (designed binder)
chain: B5 chain with I19L, Y22Q, N33K, K35R
notes: domain: GA3
B14: Z18167-ABD (designed binder)
chain: B5 chain with I19E, Q32N
notes: domain: GA3
B15: Z18220-ABD (designed binder)
chain: B5 chain with I19E, Q32S, N33K
notes: domain: GA3
B16: Z18153-ABD (designed binder)
chain: B5 chain with Q32N, N33Q
notes: domain: GA3
B17: Z18156-ABD (designed binder)
chain: B5 chain with I19F, N33R
notes: domain: GA3
B18: Z18174-ABD (designed binder)
chain: B5 chain with I19Q, N33R
notes: domain: GA3
B19: Z18377-ABD (designed binder)
chain: B5 chain with I19D, Y22F, N33T, K35I
notes: domain: GA3
B20: Z18148-ABD (designed binder)
chain: B5 chain with I19E, N33K
notes: domain: GA3
B21: Z18418-ABD (designed binder)
chain: B5 chain with I19E, Y26H, Q32S, N33Y, K35H
notes: domain: GA3
B22: Z18374-ABD (designed binder)
chain: B5 chain with I19E, Y22F, Y26H, Q32K, N33A, K35H, D43A
notes: domain: GA3
B23: Z18172-ABD (designed binder)
chain: B5 chain with I19S, Y22F, Q32N, N33A
notes: domain: GA3
B24: Z18144-ABD (designed binder)
chain: B5 chain with I19H, Y22F, Q32N, N33A
notes: domain: GA3
B25: Z18150-ABD (designed binder)
chain: B5 chain with I19Q, Y22F, Q32N, N33S
notes: domain: GA3
B26: Z18140-ABD (designed binder)
chain: B5 chain with Y22Q, Q32N, N33A
notes: domain: GA3
B27: Z18164-ABD (designed binder)
chain: B5 chain with I19T, N33E
notes: domain: GA3
B28: Z18185-ABD (designed binder)
chain: B5 chain with I19E, Y22Q, N33K, K35I
notes: domain: GA3
B29: Z18252-ABD (designed binder)
chain: B5 chain with I19E, Y22F, Q32N, N33Q
notes: domain: GA3
B30: Z18233-ABD (designed binder)
chain: B5 chain with I19T, Y22Q, N33G
notes: domain: GA3
B31: Z18243-ABD (designed binder)
chain: B5 chain with I19A, N33L
notes: domain: GA3
B32: Z18176-ABD (designed binder)
chain: B5 chain with I19D, Q32A, N33S, K35R
notes: domain: GA3
B33: Z18143-ABD (designed binder)
chain: B5 chain with I19D, Q32N, N33S
notes: domain: GA3

The first test concerns the target T1, human B7-H3 Fc Chimera (R&D Systems, …). In words: SPR. Here is the method: (§1) One flow cell surface on each chip was activated and deactivated for use as blank during analyte injections. In the kinetic experiment, HBS-EP was used as running buffer and the flow rate was 50 μl/min. The analytes, i.e. the Z variants, were each diluted in HBS-EP buffer within a concentration range of 1000 to 0.01 nM and injected for 5 min, followed by dissociation in running buffer for 15-25 min. After dissociation, the surfaces were regenerated with one or two injections of 0.1% SDS. Kinetic constants were calculated from the sensorgrams using the Langmuir 1:1 model of BiaEvaluation software 4.1 (GE Healthcare).
(§2) The Z variants were also tested for binding against the sequence-related proteins hPD-L2, hB7-H3 and hB7-H4. The Biacore analyses were performed essentially as described in Example 3, however a flow rate of 30 μl/min was used.
In general terms: Surface plasmon resonance follows binding to a sensor surface in real time, without labels.
In the case of B1, the binding result is “no binding (tested: 500 nM)”. On the same count and under the same terms, for B2 the value was “no binding (tested: 500 nM)”; for B3, “no binding (tested: 500 nM)”; for B4, “no binding (tested: 500 nM)”.

In a further test the target is T2, human PD-L2 Fc Chimera (R&D Systems, …). As to the kind of experiment: SPR. The protocol:
as §1, §2
Regarding B1, the binding result is on record as “no binding (tested: 500 nM)”. Consider B2, for which the binding result is “no binding (tested: 500 nM)”. Still for that read-out and setting: the result for B3 reads “no binding (tested: 500 nM)”; that for B4, “no binding (tested: 500 nM)”.

A further test deals with T3, human B7-H4 (R&D Systems, cat. no. …). As to the kind of experiment: SPR. The protocol: as §1, §2
As for B1, the binding result is reported as “no binding (tested: 500 nM)”.

For the molecule B2, the binding result is reported as “no binding (tested: 500 nM)”. Same read-out and setting: the result for B3 reads “no binding (tested: 500 nM)”; that for B4, “no binding (tested: 500 nM)”.

In the next test the target is T4, rhesus PD-L1/Fc Chimera (Sino Biological Inc., cat. no. 90251-C02H) (rhesus monkey, UniProt F6PJN1 19-239).
T4 construct: bought; also called RhPD-L1; rhesus monkey PD-L1; not shown: Fc part of the bought Fc chimera, not described
T4 sequence (F6PJN1 entry or part of it C02H C02H): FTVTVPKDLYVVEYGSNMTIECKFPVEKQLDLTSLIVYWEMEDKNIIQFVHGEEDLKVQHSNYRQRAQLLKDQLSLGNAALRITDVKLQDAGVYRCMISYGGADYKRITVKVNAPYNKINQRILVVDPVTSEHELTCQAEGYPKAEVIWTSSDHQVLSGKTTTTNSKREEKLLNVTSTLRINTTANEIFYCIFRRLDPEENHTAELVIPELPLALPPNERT
In words: SPR ranking, 5 and 50 nM. The protocol:
The Z variants were also tested for binding against the sequence-related proteins hPD-L2, hB7-H3 and hB7-H4. The Biacore analyses were performed essentially as described in Example 3, however a flow rate of 30 μl/min was used. […] In the specificity test, i.e. the binding analysis against hPD-L2, hB7-H3 and hB7-H4, the 24 Z variants were injected at a concentration of 500 nM.
B1: the Kd was ~1.2 nM.

For B2, the Kd is ~0.52 nM. Consider B3, for which the Kd is ~1.2 nM. The same measure, in the same setting: the result for B4 reads ~2.5 nM.

The next test has as its target T5, human PD-L1 Fc Chimera (R&D Systems, cat. no. 156-B7-100) (human, UniProt Q9NZQ7 19-239, biotinylated with Sulfo-NHS-LC-Biotin in ELISA and AlphaLISA; not biotinylated in SPR).
T5 construct: bought; also called hPD-L1; biotinylated hPD-L1; not shown: Fc part of the bought Fc chimera, not described
T5 sequence (Q9NZQ7 19-239, change not shown): as the sequence (F6PJN1 entry or part of it C02H C02H) above, with T33A, S34A, N62S, Q68R, R82Q, L173F, A185T, I192T, L215H counted along it
In words: ELISA titration, captured Z-ABD. (In general: ELISA stands for enzyme-linked immunosorbent assay.)
B5 registered a concentration giving a half-maximal response (EC50) of 0.074 nM. On the same count and under the same terms, the result for B6 reads 0.078 nM. Same read-out and setting: the result for B7 reads 0.069 nM; that for B8, 0.088 nM. On to B9, for which the EC50 was 0.08 nM. For B10, the EC50 is 0.089 nM. The same measure, in the same setting: the result for B11 reads 0.087 nM; that for B12, 0.077 nM.

In the case of B13, the response was half-maximal at 0.087 nM (EC50).

B14 showed an EC50 of 0.084 nM.

The molecule B15 came in with an EC50 of 0.084 nM. On the same count and under the same terms, the result for B16 reads 0.08 nM; that for B17, 0.08 nM; that for B18, 0.084 nM. In turn, B19 yielded an EC50 of 0.078 nM. Same read-out and setting: the result for B20 reads 0.07 nM; that for B21, 0.08 nM.

With B22, the concentration for a half-maximal effect (EC50) was 0.1 nM.

B23: the response was half-maximal at 0.076 nM (EC50).

The molecule B24 showed an EC50 of 0.079 nM.

As for B25, a half-maximal response (EC50) required 0.076 nM. Same read-out and setting: for B26 the value was 0.087 nM; for B27, 0.076 nM; for B28, 0.081 nM. Still for that read-out and setting: for B29 the value was 0.085 nM; for B30, 0.086 nM.

For B31, the EC50 turned out to be 0.081 nM.

On to B32, for which a half-maximal effect (EC50) was put at 0.089 nM. For the molecule B33, it took 0.078 nM to reach a half-maximal effect (EC50).

The target of another test is T5, human PD-L1 Fc Chimera (R&D Systems, …). As to the kind of experiment: AlphaLISA, blocks hPD-L1 binding to hPD-1. Here is the method: Exception 2: hPD-1-coated Acceptor beads were added to a final concentration of 10 μg/ml and incubated for 50 min.
For orientation: In Alpha technology, singlet oxygen from a donor bead excites a nearby acceptor bead.
For the molecule B1, the IC50 came to 1.1 nM. The molecule B2 gave an IC50 of 1.3 nM. Same read-out and setting: the result for B3 reads 0.6 nM. The same measure, in the same setting: for B4 the value was 0.86 nM.
